According to patent publication US11384076B2, “Synthesis, pharmacology and use of new and selective FMS-like tyrosine kinase 3 (FLT3) FLT3 inhibitors” (UNIVERSITÄT REGENSBURG, priority 2017, dated 2022):
Where two headings read alike, the source gives them in different places.

Key:
MV4-11 cells [1] = test system: MV4-11 cells
Ba/F3 WT = experiment: Ba/F3 cell number IC50, trypan blue staining; format: cell-based, murine; settings: for IC50: Mus musculus
Experimental: (§1) IC50 values were calculated by means of the Prism Graphpad software.

[2] = Solubility, enhancement by transformation to a carbamate prodrug; settings: water
[3] = Tolerability in xenotransplanted mice; format: in vivo; settings: doses up to 100 mg/kg
Experimental: To test the tolerability and in vivo efficacy of Marbotinib, xenotransplantation assays using NOD/SCID/yc (NSG) mice were performed. In a first experiment, 10×10^6 MV4-11 cells were transplanted subcutaneously into recipient mice (day 0). […] As a control, a cohort of transplanted mice were treated with the FLT3-inhibitor PKC412 (100 mg/kg). To investigate target efficacy, mice were sacrificed 24 hours after beginning of treatment. Upon preparation of single cell suspension derived from subcutaneous tumor nodes (90-100 cm^3), protein lysates were extracted immunoblot analyses performed.
(§2) Altogether, 18 mice were treated with different concentrations of Marbotinib either by oral administration (N=14) or intraperitoneal injections (N=4). Mice were sacrificed either 4 hours (N=9) or 24 hours (N=9) after start of treatment.

Ba/F3 FLT3 ITD = experiment: Ba/F3 cell number IC50, trypan blue staining; format: cell-based, murine
Experimental: as §1

Ba/F3 FLT3 ITD N676K = experiment: Ba/F3 cell number IC50, trypan blue staining; format: cell-based, murine
Experimental: as §1

Ba/F3 FLT3 D835YN676K = experiment: Ba/F3 cell number IC50, trypan blue staining; format: cell-based, murine
Experimental: as §1

Ba/F3 FLT3 D835Y = experiment: Ba/F3 cell number IC50, trypan blue staining; format: cell-based, murine
Experimental: as §1

Ba/F3 FLT3 ITD D835Y = experiment: Ba/F3 cell number IC50, trypan blue staining; format: cell-based, murine
Experimental: as §1

MV4;11 cells = experiment: Long-term efficacy, survival after intravenous MV4;11 transplantation; format: in vivo, mice; settings: 50 mg/kg bodyweight qd, oral gavage, 5 days from day 22, vs vehicle
Experimental: FIG. 12: Description of experimental set-up and treatment strategy.
FIG. 13: Kaplan-Meier survival curves. Recipient mice were transplanted with 1×106 MV4;11 cells by intravenous tail vein injection. Treatment with PKC412, (N=5; 50 mg/kg bodyweight, qd) Marbotinib (N=5; 50 mg/kg bodyweight, qd) or vehicle control (N=4) was started at day 22 post transplantation by oral gavage. Mice were treated for 5 days followed by an observation period and moribund mice were sacrificed. Differences in survival were analyzed by log-rank analyses.
as §2

FLT3-ITD in MV4-11 cells = experiment: Dephosphorylation of FLT3-ITD and downstream targets over time, Western blot; format: cell-based, human; settings: 5 nM; 2 h, 6 h, 16 h, 24 h
Text: Whole cell lysates were used for SDS-Page and Western blot. The blots show dephosporylation of FLT3-ITD and some of its downstream targets, cell cycle regulators, and DNA damage regulators after treatment with FLT3-inhibitors over time. GAPDH was used as loading control. Control is indicated as CTRL. Marbotinib is indicated as FLT3i3 and Marbotinib-Carbamat is indicated as FLT3i540.

MV4-11 cells [4] = experiment: Vitality assay, DAPI staining, flow cytometry; format: cell-based, human; settings: 1, 5, 10, 100 nM, 48 h; especially at 1 nM, 5 nM and 10 nM
Experimental: FIG. 14: Results of vitality assay in which MV4-11 cells were exposed to FLT3-inhibitors Marbotinib, Marbotinib Carbamate and ACC220, at different concentrations, and cell viability staining was performed.
MV4-11 cells were treated with FLT3-inhibitors at different concentrations (1 nM, 5 nM, 10 nM, 100 nM) for 48 h. Viability staining was performed using life cell staining with DAPI. Samples were analysed using flow cytometry via FACS Canto; N=3.

[5] = Mus musculus, Ba/F3 FLT3-ITD, 72 hours, N=3
[6] = Mus musculus, BaF3, 72 hours, N=3

CC(C)(C)c1cc(NC(=O)Nc2ccc(-c3cn4c(n3)sc3cc(OCCN5CCOCC5)ccc34)cc2)no1.Cl.Cl [AC220, N-(5-tert-Butyl-isoxazol-3-yl)-N′-{4-[7-(2-morpholin-4-yl-ethoxy)imidazo[2,1-b][1,3]benzothiazol-2-yl]phenyl}urea Dihydrochloride, reference compound]
highest dose that can be dosed (MV4-11 cells [1]; mice, gavage): ≤ 50 mg/kg | IC50 (Ba/F3 WT; BaF3, 72 h): 3.56 ± 0.326 nM

CC(C)(C)c1cc(NC(=O)Nc2ccc3oc(C(=O)c4cc5cc(O)ccc5[nH]4)cc3c2)no1 [Marbotinib, 1-(5-(tert-butyl)isoxazol-3-yl)-3-(2-(5-hydroxy-1H-indole-2-carbonyl)benzofuran-5-yl)urea]
solubility [2]: < 1 mg/mL | tolerability [3]: good tolerability | Ratio of activity (Ba/F3 FLT3 ITD; Marbotinib vs. 7 (AC220)): 3.7 | IC50 (Ba/F3 FLT3 ITD; [5]): 2.06 ± 0.346 nM | Ratio of activity (Ba/F3 FLT3 ITD N676K; Marbotinib vs. 7 (AC220)): 1.2 | IC50 (Ba/F3 FLT3 ITD N676K; [5]): 16.5 ± 0.973 nM | Ratio of activity (Ba/F3 FLT3 D835YN676K; Marbotinib vs. 7 (AC220)): 2.3 | IC50 (Ba/F3 FLT3 D835YN676K; [6]): 17.5 ± 0.9 nM | Ratio of activity (Ba/F3 WT; Marbotinib vs. 7 (AC220), Ba/F3 WT): 1.2 | IC50 (Ba/F3 WT; BaF3, Ba/F3 WT, 72 hours, N=3, read-out: IC50): 2.95 ± 0.852 nM | Ratio of activity (Ba/F3 FLT3 D835Y; Marbotinib vs. 7 (AC220)): 5.8 | IC50 (Ba/F3 FLT3 D835Y; [6]): 1.14 ± 0.853 nM | Ratio of activity (Ba/F3 FLT3 ITD D835Y; Marbotinib vs. 7 (AC220)): 7.8 | IC50 (Ba/F3 FLT3 ITD D835Y; [5]): 17.9 ± 0.914 nM | overall survival (MV4;11 cells): significant prolonged overall survival

CC(C)(C)c1cc(NC(=O)Nc2ccc3oc(C(=O)c4cc5cc(OC(=O)N6CCC(N7CCCCC7)CC6)ccc5[nH]4)cc3c2)no1.Cl [Marbotinib-Carbamat]
percent survival of mice (MV4-11 cells [1]; once per day by gavage, day 14 to day 18 after injection): clearly increased | solubility [2]: 3 to 4 mg/mL | block of FLT3-ITD and its associated signaling cascades (FLT3-ITD in MV4-11 cells): effectively block | cell viability, efficacy compared with AC220 (MV4-11 cells [4]): more effective than compound AC220

CO[C@@H]1[C@H](N(C)C(=O)c2ccccc2)C[C@H]2O[C@]1(C)n1c3ccccc3c3c4c(c5c6ccccc6n2c5c31)C(=O)NC4 [PKC412, reference compound]
overall survival (MV4;11 cells): No difference
